This is an account of results in the supplement of paper PMC11417369.

Some of the results follow.

The subject of this experiment is PfHDP1 homeodomain (GST-tagged). The experiment can be described thus: gcPBM binding intensity (ln(normalized median fluorescence intensity)); higher = stronger DNA binding. The method, boiled down:
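After 1 h on an Agilent 4 × 180k array of primer-extended double-stranded 36-bp intergenic genomic probes and negative controls, bound GST-tagged P. falciparum DNA-binding domains were detected with Alexa488 anti-GST antibody and scanned at 488 nm. The domains had been expressed in E. coli, and binding took place in 1× PBS with 1% milk, 0.2 mg/ml BSA, 0.5% salmon testes DNA and 0.03% Triton X-100. Binding intensity is the highest Masliner-normalised natural-log median intensity across replicate spots of either probe orientation.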
“AAATAATAAAACAACACACAAATAGTTAAAATAGAA [CACACA_site5007]”: the “gcPBM binding intensity (ln)” value came to 6.87.
The result for “TTGACATATAAGATATGTACTAATACACACACATAT [XGTACX_site1904]” reads 6.84.
The value for “ACATTCTATATATACACACATACATAATAAAGAAAG [CACACA_site2771]” was 6.9; that for “TATAAACCATAATTAACACACAAAATAAGTTACATA [CACACA_site3227]” was 6.58.
The value for “ATAATAATAAAAATTATACATAAGTATATGCACATA [XGTACX_negctrl_site583]” was 10.3.
Consider “TTTTGCTTTTTTTTTCTTTTTTGTTTTATATATATT [CACACA_negctrl_site103]”, for which the “gcPBM binding intensity (ln)” value was determined as 6.37.
The result for “ACATATGGTATTTAAACACACAAAAAAGAAAGAAAA [CACACA_site991]” reads 6.43; that for “AAATGGTAAGAAAATAAATAAAGTTCTACCACATAA [CACACA_negctrl_site1542]”, 6.41; that for “ATATATATATATATATATATATATGTTTGATTTTTT [XGTACX_negctrl_site98]”, 9.73.
The value for “ATTTTTCTTTTATTAACACACATATAAATAAATACA [CACACA_site2876]” was 6.6.
On to “TAGAAAGAATATAATTGTACAAATGTTGATAGATAA [XGTACX_site7259]”, for which the “gcPBM binding intensity (ln)” value amounted to 6.81.
As for “TATATATATATATATATTTTAAATGATATAAATGGT [TGCATGCA_negctrl_site152]”, the “gcPBM binding intensity (ln)” value was 9.23.
The result for “AATTAATTAAATTAATGTACACATATATTTGTATTC [XGTACX_site2341]” reads 6.57; that for “CCACATTAAAAAAAAACACACATATATTATATATAT [CACACA_site1155]”, 7.19; that for “AAAATGACATAATGGGGAATAGACATATACATAAAT [CACACA_negctrl_site1669]”, 6.55.
The result for “AATACATGAATATGTAGTACAGAAAAAAAAAATATA [XGTACX_site1945]” reads 6.48; that for AATTAATGGCTAAAGGTGCACAATATATATATTACA, 9.84.
The value for “AAAATAAAAAAAAACACACACATACAAGCATATATA [CACACA_site1585]” was 6.84; that for “AAAAAAAAATTTAAGGGTACATACAAATATATATAT [XGTACX_site5078]” was 8.02.
Regarding “TCCCTTCATCTTTTATGTACTAAAAAATTGAATAAT [XGTACX_site2172]”, the “gcPBM binding intensity (ln)” value was 6.67.
For “TAATACGAATGAGGCACACACCTAGTATACATGCTT [CACACA_site6438]”, the “gcPBM binding intensity (ln)” value is 6.26.
The result for “AATTAAAATTTTTGAAGTACACTCAAAATAAGTTAT [XGTACX_site4490]” reads 6.23; that for “AATTAACCCTAATTTTGTACATATTCCTTTTCTCAT [XGTACX_site46]”, 7.07; that for “AATAAAAATAGGAATACGCACACGATGATTAATTTA [CACACA_site1836]”, 6.43.
The result for “TATACCACACGATATACACACTTGTAGACATCTTTT [CACACA_site6232]” reads 6.68; that for “GTTACTATGATTAATGCATGCAAATACCAAAAAAAA [TGCATGCA_site590]”, 6.82.
The result for “TGGAATAATCCGCGTACACACATATATATATTAAGA [CACACA_site4253]” reads 6.74; that for “TTATATTCTAGAGACACATGCGATTTTTTATTTTAT [TGCATGCA_site649]”, 6.19; that for “TTTGCCATATGACACACACACATGTAAACCCCCTTT [CACACA_site6873]”, 7.1.
On to “TAATACAAAAACAATGTTCTTTCAAACATAAACATA [CACACA_negctrl_site1628]”, for which the “gcPBM binding intensity (ln)” value was 6.13.
With “TGTTAATTCTTAAGAATTTCCATAATTTCTTCTTTT [CACACA_negctrl_site1065]”, the “gcPBM binding intensity (ln)” value was found to be 6.33.
The result for “TATTTATAAAAAAATACATGCATTTTTTTTTTTTTT [TGCATGCA_site65]” reads 6.26; that for “TATTTTTATTGGTACTGTACCTATTTAGAAATACAT [XGTACX_site6663]”, 6.36; that for “ATGATTTCATTTGAGAGTACGTAAAAATAATACGTA [XGTACX_site4958]”, 5.94.
The result for “CTTTTGAACAGTTCATGTACTCAATTTTTTAATAGT [XGTACX_site6498]” reads 6.36; that for “TAATACCTATGGTATAGTACGTATTATTTTATAGAG [XGTACX_site2078]”, 6.05; that for “TATATATATATATATTTTTTTTTTTTATGCACATGG [CACACA_negctrl_site1573]”, 10.1.
The result for “TTTTTTTTTTTGAAATGTACATTCCAAAAACTGATA [XGTACX_site1495]” reads 6.43; that for “GAGAAAAGGAAATTCACACATATAAAGAAAGATCTA [CACACA_site5420]”, 6.03; that for “ATTGATACATCCAATACACACTACATATAATGATGT [CACACA_site8561]”, 6.46.
As for “TTTTTTATATATACATATATATAAATATATATAACT [GTGCAC_negctrl_site385]”, the “gcPBM binding intensity (ln)” value amounted to 6.07.
As for “GTATGTATGTATATATGTACACATTATTATTTAATG [XGTACX_site5802]”, the “gcPBM binding intensity (ln)” value turned out to be 7.06.
The value for “ATATTAATAATATATGCATGCATTAACATATTGAAA [TGCATGCA_site951]” was 6.7.
For the sequence “GTTCATATCTTTTGAGCACACATATATATATATAAA [CACACA_site9099]”, the “gcPBM binding intensity (ln)” value worked out at 7.13.
